The other results are listed elsewhere or left out. Repeats are few or missing, and single values can be far off.
Columns and labels:
Test in all cases: cell count relative to DMSO control; melanoma cells; higher = more viable cells
Conditions in all cases: library dose: low library concentration; 72 h
MZ2-MEL = tested on: MZ2-MEL
MeWo = tested on: MeWo
RPMI7951 = tested on: RPMI7951
RVH-421 = tested on: RVH-421
SkMel28 = tested on: SkMel28
SkMel30 = tested on: SkMel30
SkMel5 = tested on: SkMel5
UACC257 = tested on: UACC257
UACC62 = tested on: UACC62
WM115 = tested on: WM115
WM1716 = tested on: WM1716
WM1745 = tested on: WM1745
WM3526 = tested on: WM3526
WM3619 = tested on: WM3619
WM451Lu = tested on: WM451Lu
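Note: cell number obtained by counting DAPI-stained nuclei in high-throughput microscope images with image analysis software, screen run in 1,536-well plates.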

Row | SMILES | cell count (MZ2-MEL) [%] | cell count (MeWo) [%] | cell count (RPMI7951) [%] | cell count (RVH-421) [%] | cell count (SkMel28) [%] | cell count (SkMel30) [%] | cell count (SkMel5) [%] | cell count (UACC257) [%] | cell count (UACC62) [%] | cell count (WM115) [%] | cell count (WM1716) [%] | cell count (WM1745) [%] | cell count (WM3526) [%] | cell count (WM3619) [%] | cell count (WM451Lu) [%]
1 | C#Cc1cccc(Nc2ncnc3cc(OCCOC)c(OCCOC)cc23)c1 [erlotinib] + C/C(O)=C(\C#N)C(=O)Nc1cc(Br)ccc1Br [LFM-A13] (first compound 0.8 µM, partner dose 2 µM) | 95 | 104 | 87.6 | 105 | 61 | 91.8 | 105 | 84.7 | 89.1 | 90.9 | 92.7 | 77.8 | 95.8 | 112 | 101
2 | COc1ccc(COc2ccc(Cc3cnc(N)nc3N)cc2OC)cc1 + O=C(Oc1ccc([N+](=O)[O-])cc1)N1CCC(C(O)(c2ccc3c(c2)OCO3)c2ccc3c(c2)OCO3)CC1 [JZL184] (first compound 1 µM, partner dose 1 µM) | – | 102 | 102 | 106 | 85.3 | 104 | 89.4 | 73.8 | 80.7 | 111 | 92.8 | 104 | 92.8 | 126 | 97.5
3 | Nc1ccn([C@@H]2O[C@H](CO)[C@@H](O)C2(F)F)c(=O)n1 [gemcitabine] + Cc1cc(SCc2sc(-c3ccc(C(F)(F)F)c(F)c3)nc2C)ccc1OCC(=O)O [GW0742] (first compound 0.0004 µM, partner dose 2 µM) | – | 82.7 | 82.5 | 81 | 93.6 | 98.6 | 90.8 | 102 | 91.1 | 91.8 | 95.8 | 69.8 | 96.4 | 59.8 | 98.6
4 | CO[C@H]1C[C@@H]2CC[C@@H](C)[C@@](O)(O2)C(=O)C(=O)N2CCCC[C@H]2C(=O)O[C@H]([C@H](C)C[C@@H]2CC[C@@H](OCCO)[C@H](OC)C2)CC(=O)[C@H](C)/C=C(\C)[C@@H](O)[C@@H](OC)C(=O)[C@H](C)C[C@H](C)/C=C/C=C/C=C/1C [everolimus] + O=C(Oc1ccc([N+](=O)[O-])cc1)N1CCC(C(O)(c2ccc3c(c2)OCO3)c2ccc3c(c2)OCO3)CC1 [JZL184] (first compound 0.02 µM, partner dose 1 µM) | – | 80.5 | 85.6 | 76.1 | 54.5 | 65.3 | 86.4 | 67.3 | 59.7 | 79.7 | 79.2 | 82.3 | 49.8 | 61.4 | 91.2
5 | Cc1cc(Nc2cc(N3CCN(C)CC3)nc(Sc3ccc(NC(=O)C4CC4)cc3)n2)n[nH]1 [Tozasertib] + C[C@]12O[C@H](C[C@]1(O)CO)n1c3ccccc3c3c4c(c5c6ccccc6n2c5c31)CNC4=O [Lestaurtinib] (first compound 0.006 µM, partner dose 0.004 µM) | 103 | 80.2 | 106 | 108 | 78.5 | 82.2 | – | – | 82.2 | 83.8 | 103 | 85 | 73.5 | 128 | 105
6 | C[C@@H]1CCN(C(=O)CC#N)C[C@@H]1N(C)c1ncnc2[nH]ccc12 + O=C(Oc1ccc([N+](=O)[O-])cc1)N1CCC(C(O)(c2ccc3c(c2)OCO3)c2ccc3c(c2)OCO3)CC1 [JZL184] (first compound 1 µM, partner dose 1 µM) | – | 106 | 102 | 94.1 | 106 | 93 | 93.4 | 87.5 | 83.1 | 100 | 93.7 | 94.2 | 102 | 130 | 107
7 | Oc1cc(-c2nc(-c3ccccc3)[nH]c2-c2ccncc2)ccc1Cl + C/C(O)=C(\C#N)C(=O)Nc1cc(Br)ccc1Br [LFM-A13] (first compound 0.2 µM, partner dose 2 µM) | 85.8 | 98.8 | 97.1 | 79.5 | 70.6 | 113 | 96.1 | 98.4 | 57.9 | 71.8 | 112 | 89 | 60.1 | 106 | 99.2
8 | COCC[n+]1c2c(n(Cc3cnccn3)c1C)C(=O)c1ccccc1C2=O + O=C(Oc1ccc([N+](=O)[O-])cc1)N1CCC(C(O)(c2ccc3c(c2)OCO3)c2ccc3c(c2)OCO3)CC1 [JZL184] (first compound 0.0004 µM, partner dose 1 µM) | – | 92.9 | 78.2 | 83.1 | 104 | 111 | 73.4 | 83.8 | 86 | 86.5 | 83.2 | 92.4 | 88.4 | 105 | 80.1
